In PubChem BioAssay AID651820 (National Center for Advancing Translational Sciences (NCATS), 2012):
“And” between values parts separate entries of the source, which are not always exact repeats. Equal values may be shown once. Among all 340,000 compounds or so, about 12,000 (3.5%) were called active. Inconclusive means that the source gave no clear call. Such entries were picked first, then a sample of the others. The call rests on the fitted dose curve; in most records, active means well fitted inhibition curve with a large enough effect; inconclusive means small, poorly fitted or top-dose-only effect, or another doubt; inactive means no such curve, though single readings can be large or run the other way. Potencies of inconclusive entries are doubtful fits and often do not repeat.

experiment: qHTS Assay for Inhibitors of Hepatitis C Virus (HCV); details: Huh7.5.1 HCVcc-Cre (HCVcc is cell-culture hepatitis C virus) infection, luciferase reporter, 44 h; activity change, negative = inhibition: at 41.8 µM (top of the series) unless noted
How it was run: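 Reporter virus HCVcc-Cre (~0.5 moi) infects cells exposed to compound; seeding density 1,000 cells/well with 4 h settling beforehand. Luminescence, 15 sec read, taken 44 h post-infection following a 15 min RT substrate incubation.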
On the % scale 0 is the no-effect control and ±100 the full control effect; potency means the concentration at half of the fitted maximal effect; tags describe the fitted curve by direction and shape.

SMILES	Potency	activity change, negative = inhibition
CC(OCC(O)CNCC1COc2ccccc2O1)c1ccc(Cl)cc1 (centres undefined)	inconclusive: 3.16 µM [inhibitor, single point]	
Cc1cccc(C)c1NC(=O)CNC(=O)c1ccncc1		inactive: 14.2%
Cc1ccc(CN2CCSc3ccc(C(=O)NCCCN4CCN(C)CC4)cc32)cc1	inconclusive: 14.1 µM [inhibitor, single point]	
COc1cc(OC)c(NC(=O)N2CCOCC2)cc1Cl		inactive: 8.13%
CCOC(=O)c1ccccc1N/C=C1\CCCC1=O	inconclusive: 6.31 µM [inhibitor, partial curve]	
CC(=O)OC(C)(C)/C=C/C(=O)C(C)(O)C1[C@H](O)C[C@@]2(C)C3CC=C4C(CC[C@@H](O)C4(C)C)[C@]3(CO)C(=O)C[C@]12C (some centres undefined)	inconclusive: 0.316 µM [inhibitor, full curve, poor fit]	
CN(C)Cc1nc2c(c(=O)[nH]1)C1(CCCCC1)Cc1ccccc1-2	inconclusive: 8.91 µM [inhibitor, partial curve]	
COc1ccc(C(CNC(=O)c2cccc(S(=O)(=O)N3CCCCC3)c2)N2CCCC2)cc1 (centres undefined)	inconclusive: 11.2 µM [inhibitor, partial curve]	
Cc1ccc(S(=O)(=O)N(CC(O)CN2C(=O)NC(C)(C)C2=O)c2cccc(C)c2)cc1 (centres undefined)		inactive: 5.32%
CCOC(=O)N1CCN(S(=O)(=O)c2c(C)nc3sccn3c2=O)CC1	inconclusive: 31.6 µM [inhibitor, single point]	
CCOC(=O)CN(C(=O)COc1nc(-c2ccccc2)cc(C)c1C#N)c1ccccc1C	inconclusive: 10 µM [inhibitor, partial curve]	
COc1ccc(OCC(O)CNC(=O)c2ccccc2C(=O)O)cc1 (centres undefined)		inactive: -29.2%
O=C(CSc1nc(Nc2ccccc2)nc(N2CCOCC2)n1)Nc1cccc([N+](=O)[O-])c1	inconclusive: 7.08 µM [inhibitor, partial curve]	
Cc1cc(C)nc(Nc2n[nH]c(-c3ccccc3C)n2)n1		inactive: 14.6%
COc1cccc2c(N/N=C/c3ccc(O)c(O)c3)cc(C)nc12	inconclusive: 10 µM [inhibitor, partial curve]	
CN(N)c1nc(-c2ccccc2)nnc1C(F)(F)F		inactive: -13.6%
COc1ccc(NC(=O)CS(=O)(=O)c2ccc(C)cc2)c(OC)c1		inactive: 0.976%
O=C(/C=C/c1ccc(S(=O)(=O)N2CCOCC2)cc1)N1CCN(c2ccc(F)cc2)CC1		inactive: -15.8%
Cc1occc1-c1nnc(SCC(=O)c2ccc(F)cc2)n1Cc1ccco1	inactive and inconclusive: 501 nM [inhibitor, full curve, poor fit]	
Cc1ccc(S(=O)(=O)N(C)c2ccc(C(=O)Nc3cccc(C)n3)cc2)cc1	inconclusive: 11.2 µM [inhibitor, single point]	
C=CCn1c(SCC(=O)c2cccs2)nc2sc(C)cc2c1=O	inconclusive: 10 µM [inhibitor, partial curve]	
CCOC(=O)N1CCN(C(=O)C(NC(=O)c2ccc(C(C)(C)C)cc2)C(C)C)CC1 (centres undefined)	inconclusive: 4.47 µM [inhibitor, partial curve]	
O=C(c1cccs1)N1CCN(S(=O)(=O)c2cccc(Cl)c2Cl)CC1		inactive: 2.35%

SMILES	Potency	activity change, negative = inhibition
CC1(c2ccccc2)NC(=O)N(CC(=O)Nc2ccc(S(N)(=O)=O)cc2)C1=O (centres undefined)	inconclusive: 31.6 µM [inhibitor, single point]	
Cc1cc(N/N=C/c2ccccc2O)c2ccccc2n1	inconclusive: 10 µM [inhibitor, partial curve]	
CCc1nc2ccc(C(=O)N(C)CC(=O)Nc3ccc(Cl)c(C(F)(F)F)c3)cc2nc1CC	inconclusive: 3.55 µM [inhibitor, full curve]	
CC(=O)NS(=O)(=O)c1ccc(NC(=O)/C=C/c2ccc(C)o2)cc1		inactive: 4.94%
O=S(=O)(c1ccc(SCc2ccccc2F)nc1)N1CCCC1	inconclusive: 31.6 µM [inhibitor, single point]	
COc1cc(NC(=S)NCCc2c[nH]c3ccccc23)c(OC)cc1Cl	inconclusive: 0.501 µM [inhibitor, full curve, poor fit]	
CCOC(=O)CC(=O)CSc1ccc2nnc(-c3cccc(F)c3)n2n1	inconclusive: 11.2 µM [inhibitor, partial curve]	
CCCCNC(=O)c1cc2c(=O)n3cccc(C)c3nc2n(Cc2ccccc2)c1=N	inconclusive: 3.55 µM [inhibitor, partial curve]	
O=C(Oc1ccc(Cl)c2cccnc12)c1ccco1	inconclusive: 31.6 µM [inhibitor, single point]	
O=C(CN(Cc1ccco1)C(=O)CNS(=O)(=O)c1ccc(Cl)cc1)NCC1CCCO1 (centres undefined)		inactive: 2.99%
CCCOc1ccc(/C=C/C(=O)Nc2ccc([N+](=O)[O-])cc2C)cc1	inconclusive: 1.58 µM [inhibitor, single point]	
Cn1cc(C(=O)N/N=C/c2c(O)ccc3ccccc23)ccc1=O	active: 4.47 µM	
COc1ccc(Cn2c(CCC(=O)Nc3ccc(C)c(C)c3)nc3cccnc32)cc1	inconclusive: 7.94 µM [inhibitor, partial curve]	
COc1ccc(/C=C2/SC(=O)N(CC(=O)Nc3cc(C)on3)C2=O)cc1OC	inconclusive: 22.4 µM [inhibitor, single point]	
Cc1ccc(N(C(=O)c2nsc(Cl)c2Cl)C(C(=O)NC2CCCC2)c2ccc(O)cc2)cc1C (centres undefined)	inconclusive: 31.6 µM [inhibitor, single point]	
COc1ccc(/C=C(\C#N)c2nc3ccccc3[nH]2)cc1O	inconclusive: 3.98 µM [inhibitor, partial curve]	
COc1ccc(Nc2cc(C)c3ccc(O)cc3n2)cc1	inconclusive: 22.4 µM [inhibitor, single point]	
COc1ccc2nc(NC(=O)CS(=O)(=O)c3ccc(C)cc3)sc2c1		inactive: -2.6%
CCN1CCN(C(=O)c2cc(COc3ccc(C(C)=O)cc3OC)on2)CC1		inactive: 3.31%
O=C(CSc1nc2nc(-c3cccs3)cc(C(F)(F)F)c2c(=O)[nH]1)Nc1ccc(F)c(F)c1	inconclusive: 31.6 µM [inhibitor, single point]	
C/C(=N\NC(=O)c1ccccc1OCCOc1ccccc1)c1ccccc1F	inconclusive: 31.6 µM [inhibitor, single point]	
O=C1C(Cl)=C(NCCc2ccccc2)C(=O)c2ccccc21	inconclusive: 31.6 µM [inhibitor, single point]	
O=C(Nc1ccc(Cl)c(Cl)c1)c1ccccc1	inconclusive: 11.2 µM [inhibitor, partial curve]	

SMILES	Potency	activity change, negative = inhibition
c1ccc(-c2nc(N3CCOCC3)cc(N3CCOCC3)n2)cc1	inconclusive: 14.1 µM [inhibitor, partial curve]	
CC1Nc2ncnc(N3CCN(c4ccccc4)CC3)c2N(Cc2ccc(Cl)cc2)C1=O (centres undefined)	inconclusive: 31.6 µM [inhibitor, single point]	
CCCC(=O)NC(c1ccco1)c1cc(Cl)c2cccnc2c1O (centres undefined)	active: 11.2 µM	
Cc1ccc2nc(SCC(=O)Nc3ccccc3F)nc(=O)n2c1	inconclusive: 31.6 µM [inhibitor, single point]	
CN(Cc1cnn(C)c1)S(=O)(=O)c1cccc([N+](=O)[O-])c1		inactive: 6%
c1ccc(C2CC(c3ccccc3)n3c(nc4ccccc43)N2)cc1 (centres undefined)		inactive: -18.3%
CCN(CC)C(=O)COc1cc(C)cc2oc(=O)c3c(c12)CCCC3	inconclusive: 10 µM [inhibitor, partial curve]	
CC[C@H](C)/C=C(C)/C=C/C(=O)Cc1cc(O)c(C)c(O)c1C=O	inconclusive: 31.6 µM [inhibitor, single point]	
CCOC(=O)[C@H]1[C@H]2COc3ccc(C)cc3[C@@H]2N2C(=O)c3cc(OC)c(OC)cc3NC(=O)[C@@]12C	inconclusive: 0.631 µM [inhibitor, full curve]	
Cc1cc[n+](-c2[nH]c(=O)sc2/C=N/NC([S-])=Nc2ccccc2)cc1	inconclusive: 10 µM [inhibitor, single point]	
CCOCCCNC(=S)N1CCCN(c2nc3c(C)c(C)ccc3cc2C#N)CC1	active: 10 µM	
NC(=O)c1ccccc1NC(=O)c1cccc(C(=O)Nc2ccccc2C(N)=O)n1		inactive: 3.6%
CN(CC(=O)Nc1cccc(F)c1)C(=O)c1ccc(C(=O)c2ccccc2)cc1	inconclusive: 7.94 µM [inhibitor, partial curve, poor fit]	
CCCC(C)C(=O)Nc1nc(C)c(-c2csc(Nc3cc(Cl)ccc3C)n2)s1 (centres undefined)	inconclusive: 11.2 µM [inhibitor, single point]	
CC(=O)C1CCCN(C(=O)c2ccc3oc(CCc4ccccc4)nc3c2)C1 (centres undefined)	inconclusive: 20 µM [inhibitor, single point]	
COc1ccccc1C(CC(N)=O)c1ccco1 (centres undefined)		inactive: 0.895%
O=C(CCCCCN1C(=O)[C@@H]2Cc3ccccc3CN2C1=O)Nc1ccccc1Cl		inactive: 0.421%
CCOCCCNC(=O)C1CCC(CNS(=O)(=O)c2cccc3nsnc23)CC1 (centres undefined)		inactive: 0.78%
O=C(c1ccc(F)cc1F)N1CCN(c2ccccn2)CC1		inactive: 2.32%
O=C(COc1cccnc1[N+](=O)[O-])NCc1ccc(F)cc1		inactive: 11.4%
Cc1cc(NC(=O)c2ccc3c(c2)C(=O)N(C)C3=O)no1		inactive: 10.9%
CC(=O)C1=C(C)NC(SCC(=O)c2ccc(Cl)c(Cl)c2)=C(C#N)C1c1ccco1 (centres undefined)	inconclusive: 3.55 µM [inhibitor, full curve]	
Cc1cc(C)c2c(c1)-c1c(ssc1=S)C(C)(C)N2C(=O)CN1C(=O)c2ccccc2C1=O	inconclusive: 14.1 µM [inhibitor, single point]	
